In PubChem BioAssay AID904 (National Center for Advancing Translational Sciences (NCATS), 2007):
About 530 (0.96%) of roughly 55,000 compounds were called active. This list was built around the results that the source calls inconclusive (neither active nor inactive); the mix of calls is not that of the screen. Calls follow the shape of the dose curve; as a rule, active = well fitted cell-killing curve with a large enough effect; inconclusive = small, poorly fitted or top-dose-only effect; inactive = no such curve, though single readings can be large or run the other way. A potency beside an inconclusive call is a rough fit, not a confirmed value.

Experiment: qHTS Screen for Compounds that Selectively Target Cancer Cells with p53 Mutations: Cytotoxicity of p53 Null Cells at the Nonpermissive Temperature; also: nearly all actives have a fitted effect of over 50% in size;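 as to activity, negative = cell killing: 0% = DMSO only and -100% = full killing by 100 µM tamoxifen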
Conditions: H1299 p53-null (neo) cells, 39C, ATPlite viability, 24 h; activity, negative = cell killing: at 46.1 µM (top of the series)
Summary of the method: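 H1299 lung cancer cells, p53-null (H1299-neo) or expressing p53 A138V (H1299-p53A138V), were plated overnight at 37C, then exposed to compounds at up to 46 uM for 24 hr at 39C. Viability was read by ATP-based luminescence.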
Potency is read from the fitted curve at half-maximal effect; tags tell the direction and shape of the fitted curve.

SMILES | Potency | activity, negative = cell killing
CCc1cccc(NC(=O)c2cc3c(s2)-c2ccccc2OC3)c1 | inconclusive: 14.1 µM [cytotoxic, partial curve] | 
O=C(CSc1cn(CC(=O)N2CCCCC2)c2ccccc12)NCc1ccc(F)cc1 | inconclusive: 0.0126 µM [cytotoxic, full curve, poor fit] | 
CCCN(CCC)CCCNC(=O)C1CCN(c2nc3ccc(CC)cc3s2)CC1 | inconclusive: 12.6 µM [cytotoxic, partial curve, poor fit] | 
Cc1c(-c2ccc(Cl)cc2)c(=O)oc2c(CN3CCN(CCO)CC3)c(O)ccc12 | inconclusive: 11.2 µM [cytotoxic, partial curve, poor fit] | 
CCOc1ccccc1NS(=O)(=O)c1ccc2[nH]c3c(c2c1)CCCCC3 | inconclusive: 12.6 µM [cytotoxic, partial curve] | 
CC(C)(C)c1ccc(C(=O)NC2(C(F)(F)F)NC(=O)N(CCc3ccccc3)C2=O)cc1 (stereo not drawn) | inconclusive: 20 µM [cytotoxic, single point] | 
CCCc1cc(N2CCN(c3cccc(C)c3C)CC2)n2cnnc2n1 |  | inactive: 2.2%
COC(=O)c1sc(-c2ccccc2)cc1NC(=O)Nc1ccc(Cl)cc1 | inconclusive: 31.6 µM [cytotoxic, single point] | 
COc1cc2nc(Nc3cccc(C)c3)nc(N)c2cc1OC | inconclusive: 12.6 µM [cytotoxic, partial curve] | 
CN(C)c1ccc(-c2nc(-c3cccs3)c(-c3cccs3)[nH]2)cc1 | inconclusive: 35.5 µM [cytotoxic, single point] | 
Cc1cc(C)cc(NC(=O)CSc2nc(=O)[nH]c3c2CCC3)c1 | inconclusive: 15.8 µM [cytotoxic, partial curve, poor fit] | 
CN(C)c1oc(-c2ccc(COc3ccccc3)o2)nc1C#N | inconclusive: 6.31 µM [cytotoxic, partial curve] | 
CCN(CC)CCNC(=O)c1cc2c(=O)[nH]c3ccc(C)cc3c2s1 |  | inactive: 20.1%
CCN(c1ccc(C)cc1)S(=O)(=O)c1nnc(NC(=O)c2cccs2)s1 | inconclusive: 4.47 µM [cytotoxic, full curve] | 
CC(C)c1ccccc1NC(=O)CSc1nnc(COc2ccccc2Cl)o1 |  | inactive: -4.31%
CCOc1ccccc1N1CC(c2nc3ccccc3n2CCOc2ccc(C(C)(C)C)cc2)CC1=O (stereo not drawn) | active: 20 µM | 
O=C1c2cccc(OCC(=O)N3N=C(c4cccs4)CC3c3ccc(F)cc3)c2CCN1Cc1ccccc1 (stereo not drawn) | inconclusive: 17.8 µM [cytotoxic, single point] | 
CCCc1nn2c(C)c(-c3ccccc3)nc2s1 | active: 10 µM | 
O=S(=O)(Nc1cccc(-c2ccc(N3CCOCC3)nn2)c1)c1ccc(F)cc1F | inconclusive: 10 µM [cytotoxic, partial curve] | 
CCOC(=O)c1ccc(Nc2nc3nonc3nc2Nc2cccc(C)c2C)cc1 | inconclusive: 12.6 µM [cytotoxic, partial curve, poor fit] | 
Nc1ccc2nc(-c3cc(Cl)c(N)c(Cl)c3)[nH]c2c1 | inconclusive: 15.8 µM [cytotoxic, single point] | 
COc1ccc(CNC(=O)Cn2c(=O)nc(-c3ccccc3F)c3cc(Cl)ccc32)cc1 |  | inactive: 11.7%
Cc1ccc(C(=O)Nc2ccc(-c3nc4ccccc4s3)cc2C)cc1C |  | inactive: -18.5%

SMILES | Potency | activity, negative = cell killing
CC(=O)C1=C(c2ccc(C)c(C)c2)N(C(C)=O)n2c(nnc2-c2ccc(Cl)cc2)S1 |  | inactive: 6.9%
Cc1csc2nc(COc3ccccc3NC(=O)c3ccc(C(C)(C)C)cc3)cc(=O)n12 | inconclusive: 12.6 µM [cytotoxic, partial curve, poor fit] | 
Cc1cccc2c1-c1sc(C(=O)N(C)c3cccc(C(F)(F)F)c3)cc1CO2 |  | inactive: -7.5%
CCOc1cccc(C2c3c(-c4cc(C)ccc4O)n[nH]c3C(=O)N2Cc2ccco2)c1 (stereo not drawn) | inconclusive: 15.8 µM [cytotoxic, single point] | 
Cc1ccc(-c2cc(C(F)(F)F)c(C#N)c(SCC(=O)Nc3ccccc3)n2)cc1 | inconclusive: 0.316 µM [cytotoxic, full curve] | 
COc1cc2[nH]c(=O)n(CCCC(=O)N3CCN(c4cccc(C(F)(F)F)c4)CC3)c(=O)c2cc1OC |  | inactive: 0.405%
COc1ccccc1NC(=O)c1sc2nc3c(cc2c1N)CCCCCC3 |  | inactive: -5.92%
Cc1cc(C)c(NC(=O)Nc2ccc3snnc3c2)c(C)c1 | inconclusive: 7.94 µM [cytotoxic, partial curve] | 
Cc1ccc(Nc2c(-c3ccc(O)cc3)nc3cccc(C)n23)cc1 | inconclusive: 17.8 µM [cytotoxic, single point] | 
Cc1ccc(NC(=O)N2CCC(c3ccccc3)C2)cc1C (stereo not drawn) | inconclusive: 10 µM [cytotoxic, partial curve] | 
COc1ccc(NC(=O)c2ccco2)cc1NC(=O)COc1ccccc1 |  | inactive: -12.8%
O=c1c(S(=O)(=O)c2ccccc2)cn(Cc2cccc(F)c2)c2cc(N3CCOCC3)c(F)cc12 |  | inactive: -8.77%
CCOc1ccccc1C(=O)Nc1c(C(=O)Nc2ccc(F)cc2)oc2ccccc12 |  | inactive: 29.9%
CCCCn1c(NCc2ccc(OC)cc2O)nc2ccccc21 |  | inactive: 8.41%
CCOc1ccc(CNCc2c(C(=O)O)n(Cc3ccc(C)cc3)c3cc(C)ccc23)cc1 | inconclusive: 35.5 µM [cytotoxic, single point] | 
CCOC(=O)c1cc(C)n(CC2CCC(C(=O)Nc3ccc(OC)cc3)CC2)c1C (stereo not drawn) |  | inactive: 20.4%
CCOC(=O)c1ccccc1NC(=O)CSc1nnc(CC)n2c1cc1occc12 | inconclusive: 12.6 µM [cytotoxic, single point] | 
CCOC(=O)CSc1nc2ccc(NC(=O)c3ccc(Cl)cc3)cc2s1 |  | inactive: -29.3%
Cc1ccc(C(C)C)c(OCC(=O)Nc2cc(-c3nc4ccccc4[nH]3)ccc2C)c1 | active: 7.94 µM | 
COc1ccc(Cn2c(SCc3ccc(C(=O)NCc4ccc(C)cc4)cc3)nc3cccnc32)cc1 | inconclusive: 17.8 µM [cytotoxic, partial curve, poor fit] | 
COc1ccc(C(=O)CC2(O)C(=O)N(Cc3ccccc3)c3ccc(Br)cc32)cc1 (stereo not drawn) | inconclusive: 12.6 µM [cytotoxic, single point] | 
Cc1ccc(C)c(NC(=O)Cn2ncc3c(C)n(Cc4ccc(F)cc4)c(C)c3c2=O)c1 | inconclusive: 1.58 µM [cytotoxic, partial curve] | 
Cc1ccccc1C(=O)Oc1c(Sc2ccccc2)c(C)nn1C(C)(C)C |  | inactive: 5.67%

SMILES | Potency | activity, negative = cell killing
CCCCOc1cccc(C(=O)N(Cc2cccs2)c2ccc(OC)cc2)c1 | inconclusive: 7.94 µM [cytotoxic, partial curve] | 
CCN(CC)CCNC(=O)Nc1ccc2c(c1)N(Cc1ccccc1)C(=O)c1ccccc1S2 | active: 17.8 µM | 
COc1cccc2cc(-c3nnc(Nc4c(F)cccc4F)s3)c(=O)oc12 |  | inactive: 5.81%
O=C(NCCc1nc2ccccc2n1Cc1ccc(Cl)cc1Cl)c1ccco1 | inconclusive: 11.2 µM [cytotoxic, partial curve] | 
CC(C)Sc1ncc(Cl)c(C(=O)N(Cc2ccc(N(C)C)cc2)C2CCS(=O)(=O)C2)n1 (stereo not drawn) | inconclusive: 0.005 µM [cytotoxic, full curve, poor fit] | 
CC(=O)N1c2ccc(S(=O)(=O)NCC3CCC(C(=O)Nc4cc(C)ccc4C)CC3)cc2CC1C (stereo not drawn) |  | inactive: -8.14%
COc1cc(NC(=O)c2c(C)oc3c2C2=NCCN2C=N3)cc(OC)c1OC |  | inactive: -17.4%
CCCc1cc(C(=O)Nc2c(C)nn(Cc3c(Cl)cccc3Cl)c2C)no1 | inconclusive: 31.6 µM [cytotoxic, single point] | 
Cc1cc(C)c(S(=O)(=O)Nc2ccc(-c3ccc(N4CCCCCC4)nn3)cc2)c(C)c1 | inconclusive: 3.98 µM [cytotoxic, partial curve] | 
CCN1CCc2c(sc(-n3cccc3)c2C(C)NC(=O)Nc2ccc(Br)cc2)C1 (stereo not drawn) |  | inactive: -9.12%
Cc1ccc(Cn2c(CO)cnc2SCC(=O)Nc2ccc(C)c(Cl)c2)cc1 | inconclusive: 31.6 µM [cytotoxic, single point] | 
COc1ccc2c(c1)sc(N)[n+]2Cc1cc(C)cc2cccnc12 | inconclusive: 3.16 µM [cytotoxic, single point] | 
CCOC(=O)c1[nH]c(C)c(CCC(=O)NCc2ccc(CC)cc2)c1C |  | inactive: -12.5%
CCn1c2c(c(=O)n3ncc(C(=O)N4CCN(c5ccc(Cl)cc5)CC4)c13)CN(Cc1ccc(OC)cc1)CC2 | inconclusive: 0.794 µM [cytotoxic, partial curve, poor fit] | 
CN1C(=O)c2ccccc2Sc2ccc(NC(=O)c3ccc(C(F)(F)F)cc3)cc21 |  | inactive: 4.36%
COc1ccc(N2C(=O)CSC23C(=O)N(CC(=O)NCCc2ccccc2)c2ccccc23)cc1 (stereo not drawn) | inconclusive: 0.0316 µM [cytotoxic, full curve, poor fit] | 
CCOc1ccc(Nc2c(S(=O)(=O)c3ccccc3)cnc3ccc(F)cc23)cc1 |  | inactive: 86.5%
Cc1ccc(NC(=O)C2CCN(S(=O)(=O)c3cccc4nonc34)CC2)cc1C |  | inactive: 22.1%
COc1ccc(NC(=O)CSc2nc(-c3cccc(C)c3)[nH]c2-c2ccccc2)cc1OC | inconclusive: 10 µM [cytotoxic, partial curve] | 
Cc1ccc(C)c(-c2ccc(=O)n(Cc3c(F)cccc3Cl)n2)c1 | inconclusive: 15.8 µM [cytotoxic, partial curve] | 
CCOc1ccc(Cn2c(=O)sc3ccccc32)cc1 | inconclusive: 1 µM [cytotoxic, full curve, poor fit] | 
CC(C)(C)C(=O)Nc1nc(-c2ccccc2)ns1 | inconclusive: 11.2 µM [cytotoxic, partial curve] | 
